Source: US8242166B2, “C(10) ethyl ester and C(10) cyclopropyl ester substituted taxanes” (Florida State University Research Foundation, Inc., priority 2008, dated 2012)
Where “and” joins values, the source holds several entries; their conditions need not be identical. Equal values may be shown once.

Key:
Sprague-Dawley rats [1] = experiment: Rat toxicity study e195; format: in vivo
Sprague-Dawley rats [2] = experiment: Rat toxicity study e346 multiple dose; conditions: for Score AVE: average rat toxicity score of 3 rats; for Day 1 BW: body weight Day 1; for Day 22 BW: body weight Day 22; for Day 24 BW: body weight Day 24; for Score: rat toxicity score; for Total: sum of score points; for axonal degeneration vs docetaxel: ethanol, Liposyn II 20% (5:95)
Sprague-Dawley rats [3] = experiment: Rat toxicity study e196; format: in vivo
Sprague-Dawley rats [4] = experiment: Rat toxicity study e199
[5] = 12 mg/kg IV, individual rats, sum of points, possible 130
[6] = 12 mg/kg IV, individual rats, total divided by 13, scale 0 to 10
[7] = intravenous, ethanol and Liposyn II 20% formulation
[8] = 12 mg/kg IV, individual rats, axonal degeneration grade
[9] = 12 mg/kg IV, average of three rats

With `CC(=O)O[C@@]12CO[C@@H]1C[C@H](O)[C@@]1(C)C(=O)[C@H](OC(=O)C3CC3)C3=C(C)[C@@H](OC(=O)[C@H](O)[C@@H](NC(=O)OC4CCCC4)c4cccs4)C[C@@](O)([C@@H](OC(=O)c4ccccc4)C12)C3(C)C` (some centres unmarked) [Compound 17932] the “Day 1 BW” value (Sprague-Dawley rats [1]; 12 mg/kg IV, individual rats) was 231 and 230 and 234, the “Day 4 ALT” value (Sprague-Dawley rats [1]; 12 mg/kg IV, individual rats) was 20 and 24 and 27 and the “Day 4 AST” value (Sprague-Dawley rats [1]; 12 mg/kg IV, individual rats) was 100 and 111 and 121. For the same molecule, the “Day 4 BUN” value (Sprague-Dawley rats [1]; 12 mg/kg IV, individual rats) was 9 (2×) and 15, the “Day 4 PLT” value (Sprague-Dawley rats [1]; 12 mg/kg IV, individual rats) was 836 and 854 and 742 and the “Day 4 WBC” value (Sprague-Dawley rats [1]; 12 mg/kg IV, individual rats) was 7.92 and 9.24 and 5.47. The “Day 8 BW” value (Sprague-Dawley rats [1]; 12 mg/kg IV, individual rats) was 205 and 211 (2×), the “Day 10 BW” value (Sprague-Dawley rats [1]; 12 mg/kg IV, individual rats) was 210 and 211 and 226 and the “Day 10 PLT” value (Sprague-Dawley rats [1]; 12 mg/kg IV, individual rats) was 1207 and 1506 and 957. For the same molecule, the “Day 10 WBC” value (Sprague-Dawley rats [1]; 12 mg/kg IV, individual rats) was 14.6 and 25.3 and 11.2, the Total (Sprague-Dawley rats [1]; [5]) was 95 and 100 and 120 and the Score (Sprague-Dawley rats [1]; [6]) was 7.3 and 7.7 and 9.2. For the same molecule, the “axonal degeneration” value (Sprague-Dawley rats [1]; [7]) was “very little axonal degeneration”, the “rat toxicity score (average)” value (Sprague-Dawley rats [1]; [7]) was 8.1 and the “rat toxicity score (single values averaged)” value (Sprague-Dawley rats [1]; [7]) was 7.3 and 7.7 and 9.2. The “Score AVE” value (Sprague-Dawley rats [2]; 12 mg/kg IV) was 5.9, the “Day 18 ALT” value (Sprague-Dawley rats [2]; 12 mg/kg IV, individual rat) was 38 (2×) and 28 and the “Day 18 AST” value (Sprague-Dawley rats [2]; 12 mg/kg IV, individual rat) was 164 and 142 and 144. For the same molecule, the “Day 18 BUN” value (Sprague-Dawley rats [2]; 12 mg/kg IV, individual rat) was 16 and 12 and 11, the “Day 18 PLT” value (Sprague-Dawley rats [2]; 12 mg/kg IV, individual rat) was 546 and 1083 and 627 and the “Day 18 WBC” value (Sprague-Dawley rats [2]; 12 mg/kg IV, individual rat) was 5.2 and 5.04 and 4.52. The “Day 24 PLT” value (Sprague-Dawley rats [2]; 12 mg/kg IV, individual rat) was 1134 and 1329 and 1010, the “Day 1 BW” value (Sprague-Dawley rats [2]; 12 mg/kg IV, individual rat) was 250 and 231 and 230 and the “Day 22 BW” value (Sprague-Dawley rats [2]; 12 mg/kg IV, individual rat) was 190 and 185 and 168. The “Day 24 BW” value (Sprague-Dawley rats [2]; 12 mg/kg IV, individual rat) was 193 and 199 and 188, the Score (Sprague-Dawley rats [2]; 12 mg/kg IV, individual rat) was 5.4 and 6.5 and 5.8 and the Total (Sprague-Dawley rats [2]; 12 mg/kg IV, individual rat) was 70 and 85 and 75. For the same molecule, the “axonal degeneration vs docetaxel” value (Sprague-Dawley rats [2]; weekly) was “much less axonal degeneration than docetaxel”.
With `CC(=O)O[C@@]12CO[C@@H]1C[C@H](O)[C@@]1(C)C(=O)[C@H](OC(=O)C3CC3)C3=C(C)[C@@H](OC(=O)[C@H](O)[C@@H](NC(=O)OC4CCC4)c4cccs4)C[C@@](O)([C@@H](OC(=O)c4ccccc4)C12)C3(C)C` (some centres unmarked) [Compound 18365] the “Day 1 BW” value (Sprague-Dawley rats [3]; 12 mg/kg IV, individual rats) was 222 and 229 and 239, the “Day 4 ALT” value (Sprague-Dawley rats [3]; 12 mg/kg IV, individual rats) was 19 and 20 (2×) and the “Day 4 AST” value (Sprague-Dawley rats [3]; 12 mg/kg IV, individual rats) was 101 and 81 and 98. The “Day 4 BUN” value (Sprague-Dawley rats [3]; 12 mg/kg IV, individual rats) was 18 and 15 (2×), the “Day 4 PLT” value (Sprague-Dawley rats [3]; 12 mg/kg IV, individual rats) was 968 and 1035 and 1106 and the “Day 4 WBC” value (Sprague-Dawley rats [3]; 12 mg/kg IV, individual rats) was 5.65 and 3.39 and 5.62. For the same molecule, the “Day 8 BW” value (Sprague-Dawley rats [3]; 12 mg/kg IV, individual rats) was 203 and 213 and 225, the “Day 10 BW” value (Sprague-Dawley rats [3]; 12 mg/kg IV, individual rats) was 211 and 225 and 241 and the “Day 10 PLT” value (Sprague-Dawley rats [3]; 12 mg/kg IV, individual rats) was 1201 and 1080 and 1214. The “Day 10 WBC” value (Sprague-Dawley rats [3]; 12 mg/kg IV, individual rats) was 10.2 and 13.4 and 12.1, the “Neuro Tox” value (Sprague-Dawley rats [3]; [8]) was 0 (no degen axons) and the Total (Sprague-Dawley rats [3]; [5]) was 105 and 85 and 110. For the same molecule, the Score (Sprague-Dawley rats [3]; [6]) was 8.1 and 6.5 and 8.5, the “Score AVE” value (Sprague-Dawley rats [3]; [9]) was 7.7 and the “axonal degeneration” value (Sprague-Dawley rats [3]; [7]) was “no axonal degeneration”. The rat toxicity score (Sprague-Dawley rats [3]; [7]) was 7.7, the “Score AVE” value (Sprague-Dawley rats [2]; 12 mg/kg IV) was 6.4 and the “Day 18 AST” value (Sprague-Dawley rats [2]; 12 mg/kg IV, individual rat) was 162 and 153 and 276. The “Day 18 BUN” value (Sprague-Dawley rats [2]; 12 mg/kg IV, individual rat) was 10 and 9 (2×), the “Day 18 PLT” value (Sprague-Dawley rats [2]; 12 mg/kg IV, individual rat) was 699 and 772 and 751 and the “Day 18 WBC” value (Sprague-Dawley rats [2]; 12 mg/kg IV, individual rat) was 4.03 and 4.68 and 7.36. For the same molecule, the “Day 24 PLT” value (Sprague-Dawley rats [2]; 12 mg/kg IV, individual rat) was 1270 and 1053 and 1305, the “Day 24 WBC” value (Sprague-Dawley rats [2]; 12 mg/kg IV, individual rat) was 7.03 and 6.24 and 14.4 and the “Day 1 BW” value (Sprague-Dawley rats [2]; 12 mg/kg IV, individual rat) was 214 and 236 and 260. The “Day 22 BW” value (Sprague-Dawley rats [2]; 12 mg/kg IV, individual rat) was 201 and 226 and 230, the “Day 24 BW” value (Sprague-Dawley rats [2]; 12 mg/kg IV, individual rat) was 216 and 232 and 241 and the Score (Sprague-Dawley rats [2]; 12 mg/kg IV, individual rat) was 6.9 and 7.7 and 4.6. For the same molecule, the Total (Sprague-Dawley rats [2]; 12 mg/kg IV, individual rat) was 90 and 100 and 60 and the “axonal degeneration vs docetaxel” value (Sprague-Dawley rats [2]; weekly) was “much less axonal degeneration than docetaxel”.
With `CCC(=O)O[C@H]1C(=O)[C@@]2(C)C([C@H](OC(=O)c3ccccc3)[C@]3(O)C[C@H](OC(=O)[C@H](O)[C@@H](NC(=O)OC4CCCC4)c4cccs4)C(C)=C1C3(C)C)[C@]1(OC(C)=O)CO[C@@H]1C[C@@H]2O` (some centres unmarked) [Compound 18926] the “Score AVE” value (Sprague-Dawley rats [2]; 12 mg/kg IV) was 3.7, the “Day 18 ALT” value (Sprague-Dawley rats [2]; 12 mg/kg IV, individual rat) was 60 and 102 and 49 and the “Day 18 AST” value (Sprague-Dawley rats [2]; 12 mg/kg IV, individual rat) was 237 and 389 and 283. The “Day 18 BUN” value (Sprague-Dawley rats [2]; 12 mg/kg IV, individual rat) was 18 (2×) and 16, the “Day 18 PLT” value (Sprague-Dawley rats [2]; 12 mg/kg IV, individual rat) was 611 and 772 and 943 and the “Day 18 WBC” value (Sprague-Dawley rats [2]; 12 mg/kg IV, individual rat) was 4.74 and 3.3 and 4.93. For the same molecule, the “Day 24 WBC” value (Sprague-Dawley rats [2]; 12 mg/kg IV, individual rat) was 12.3 and 11.4 and 10.2, the “Day 1 BW” value (Sprague-Dawley rats [2]; 12 mg/kg IV, individual rat) was 222 and 227 and 255 and the “Day 22 BW” value (Sprague-Dawley rats [2]; 12 mg/kg IV, individual rat) was 156 and 160 and 168. For the same molecule, the “Day 24 BW” value (Sprague-Dawley rats [2]; 12 mg/kg IV, individual rat) was 166 and 169 and 176, the Score (Sprague-Dawley rats [2]; 12 mg/kg IV, individual rat) was 3.1 and 3.8 and 4.2 and the Total (Sprague-Dawley rats [2]; 12 mg/kg IV, individual rat) was 40 and 50 and 55. The “rat toxicity score vs docetaxel” value (Sprague-Dawley rats [2]; weekly) was “lower score than docetaxel”, the “axonal degeneration vs docetaxel” value (Sprague-Dawley rats [2]; weekly) was “much less axonal degeneration than docetaxel” and the “Day 1 BW” value (Sprague-Dawley rats [4]; 12 mg/kg IV, individual rats) was 219 and 241 and 231. The “Day 4 ALT” value (Sprague-Dawley rats [4]; 12 mg/kg IV, individual rats) was 26 and 31 and 32, the “Day 4 BUN” value (Sprague-Dawley rats [4]; 12 mg/kg IV, individual rats) was 9 (2×) and 12 and the “Day 4 PLT” value (Sprague-Dawley rats [4]; 12 mg/kg IV, individual rats) was 829 and 960 and 948. The “Day 4 WBC” value (Sprague-Dawley rats [4]; 12 mg/kg IV, individual rats) was 5.06 and 5.79 and 4.86, the “Day 8 BW” value (Sprague-Dawley rats [4]; 12 mg/kg IV, individual rats) was 200 and 213 and 206 and the “Day 10 BW” value (Sprague-Dawley rats [4]; 12 mg/kg IV, individual rats) was 204 and 223 and 208. For the same molecule, the “Day 10 PLT” value (Sprague-Dawley rats [4]; 12 mg/kg IV, individual rats) was 1319 and 1547 and 1442, the “Day 10 WBC” value (Sprague-Dawley rats [4]; 12 mg/kg IV, individual rats) was 12.8 and 11.8 and 11.6 and the “Neuro Tox” value (Sprague-Dawley rats [4]; [8]) was 0 (no degen axons). The Total (Sprague-Dawley rats [4]; [5]) was 100 (2×) and 90, the Score (Sprague-Dawley rats [4]; [6]) was 7.7 (2×) and 6.9 and the “Score AVE” value (Sprague-Dawley rats [4]; [9]) was 7.4. The “axonal degeneration” value (Sprague-Dawley rats [4]; intravenous) was “no axonal degeneration” and the rat toxicity score (Sprague-Dawley rats [4]; intravenous) was 7.4.
In the case of `CCC(=O)O[C@H]1C(=O)[C@@]2(C)C([C@H](OC(=O)c3ccccc3)[C@]3(O)C[C@H](OC(=O)[C@H](O)[C@@H](NC(=O)OC4CCC4)c4cccs4)C(C)=C1C3(C)C)[C@]1(OC(C)=O)CO[C@@H]1C[C@@H]2O` (some centres unmarked) [Compound 19244], the “Score AVE” value (Sprague-Dawley rats [2]; 12 mg/kg IV) is reported as 6.0, the “Day 18 ALT” value (Sprague-Dawley rats [2]; 12 mg/kg IV, individual rat) is reported as 30 and 31 and 64 and the “Day 18 AST” value (Sprague-Dawley rats [2]; 12 mg/kg IV, individual rat) is reported as 143 and 117 and 158. For the same molecule, the “Day 18 BUN” value (Sprague-Dawley rats [2]; 12 mg/kg IV, individual rat) was 9 and 10 and 11, the “Day 18 PLT” value (Sprague-Dawley rats [2]; 12 mg/kg IV, individual rat) was 724 and 1221 and 980 and the “Day 18 WBC” value (Sprague-Dawley rats [2]; 12 mg/kg IV, individual rat) was 3.3 and 3.79 and 3.97. For the same molecule, the “Day 24 PLT” value (Sprague-Dawley rats [2]; 12 mg/kg IV, individual rat) was 940 and 653 and 1531, the “Day 24 WBC” value (Sprague-Dawley rats [2]; 12 mg/kg IV, individual rat) was 7.1 and 3.11 and 9.13 and the “Neuro Tox” value (Sprague-Dawley rats [2]; 12 mg/kg IV, individual rat, axonal degeneration grade) was 3 (11-50 degen axons). For the same molecule, the “Day 1 BW” value (Sprague-Dawley rats [2]; 12 mg/kg IV, individual rat) was 226 and 244 and 233, the “Day 22 BW” value (Sprague-Dawley rats [2]; 12 mg/kg IV, individual rat) was 198 and 201 and 184 and the “Day 24 BW” value (Sprague-Dawley rats [2]; 12 mg/kg IV, individual rat) was 208 and 216 and 196. For the same molecule, the Score (Sprague-Dawley rats [2]; 12 mg/kg IV, individual rat) was 6.9 and 5.8 and 5.4, the Total (Sprague-Dawley rats [2]; 12 mg/kg IV, individual rat) was 90 and 75 and 70 and the “axonal degeneration vs docetaxel” value (Sprague-Dawley rats [2]; weekly) was “high axonal degeneration, but was still lower than docetaxel”.
